Experimental data as given in PMC12136788.
The list shows a part of the results.

B1: chr8:54147534:54147638:+|CDS|ENSG00000137547|unk|FALSE|unique (ssRNA)
RNA: GGGAGUUCUACAGUCCGACGAUCAAGUAUGGUUAUAUCUUACCUGAUAUCACUAAAGAUGAACUCUUCAAAAUGCUCUGUACUAGGAAGGAUCCAAGGCAGAUUUUCUUUGGUCUUGCUCCAGGAUGGGUGGUGAAUAUGGCCCAACAGAGGAUUGAGCAUCA
B2: ENSG00000198589:be:win_5751|CDS|ENSG00000198589|bound_else_gene|NA|bound_elsewhere_windowed (ssRNA)
RNA: GGGAGUUCUACAGUCCGACGAUCUGAGUCACUGUGUGCCCAGUAUUCUGCAGACAAACGAGAAGAUGAGAAGAUGUGUGAUCAUUUGAUAAGAGCAGCAAAAUAUCGUGACCACGUGACAGCAACUCAACUAAUCCAGAAAAUCAACAGAGGAUUGAGCAUCA
B3: chr1:168200228:168200338:+|3pUTR|ENSG00000143155|unk|FALSE|unique (ssRNA)
RNA: GGGAGUUCUACAGUCCGACGAUCUAUUUUCUGGAGUUAAAUUUGGAUGAUUUCUAAAUUAUCACAAAGUGGGACCUCAGCAGUAGUGAUGUGUGUGUCUCAUGAGCAGUGAGCACAGUCUGCAUUCAUCAUGAAACACUAUCUCAACAGAGGAUUGAGCAUCA
B4: chr12:98549714:98549829:+|3pUTR|ENSG00000120802|unk|total|mutant (ssRNA)
RNA: GGGAGUUCUACAGUCCGACGAUCGAAGAUGUAUAUUCCGACCAGCACACAAUUUUGAUUUCAAUCCGCCUUAUUCUAAUAUUCCGCUUUCCGAUCUUUCAUACACAUUUUCACGUACUUUGCAAUUGAGACCAGAAAGACUUGCAACAGAGGAUUGAGCAUCA
B5: chr11:112063736:112063838:+|3pUTR|ENSG00000150768|unk|FALSE|unique (ssRNA)
RNA: GGGAGUUCUACAGUCCGACGAUCGAGAGAAAAAAUUAACUAGGUUGCUACUUUAUUUGCCUAAAUACUUUUUUCUAUUUUGUUAGAUUUUGCCUUUCUUUUGGAAGGAAGGAGGCGAUAUUCUGGAUUAUAAAAAUGAAUUGGCAACAGAGGAUUGAGCAUCA
B6: chrX:101625945:101626046:+|CDS|ENSG00000102401|unk|total|mutant (ssRNA)
RNA: GGGAGUUCUACAGUCCGACGAUCAGGUUCACUUUUUUUCUUUUUAAAAGAAUUUCAAGUGUGUGCUGAUAAGGUUCUGGGAACCGAAAGUCACCAUGAUUUUUUGGUGAAAGUAAAAGUUGGAAAAUUCAUGGCCAAACUUGCCAACAGAGGAUUGAGCAUCA
B7: chr21:43756582:43756683:+|3pUTR|ENSG00000160209|msi1|FALSE|unique (ssRNA)
RNA: GGGAGUUCUACAGUCCGACGAUCGCAUUCGAACUUUUGGUUCUUACUUUGCUGCUCGUUUAGUCCCUGGGGAUUUCAGAUCUUAGGCUGUUGUUUCACCGUAUGGGAGGGUUGAUGUGAGCUUGCUUGGAGACACACGGUGCACAACAGAGGAUUGAGCAUCA
B8: chr2:130346496:130346597:+|3pUTR|ENSG00000136718|unk|FALSE|unique (ssRNA)
RNA: GGGAGUUCUACAGUCCGACGAUCACUCAGUCAGGACAUGGACUUGGAACUCAGGAUGGGGCUGUCAUAGACAGACCCACCAGUAGGAACUGUCACAGAAUGGCCUGCUGAACUGGGAUGUGGAACUGUGGCGGGUGGAGAGGUCAACAGAGGAUUGAGCAUCA
B9: chr7:39987650:39987751:+|CDS|ENSG00000065883|unk|total|mutant (ssRNA)
RNA: GGGAGUUCUACAGUCCGACGAUCUCCCGGCAUUCAAGAUCUCGCCGCAGGCACAGAUUGUCCCGAUCCAGAAGUCGUCAUUCCCGUAUUUCUCCCCGCACACUAACUCUGAAGAGCCGCCUGGCAGCUGAAUUGAACAAGAAUCAACAGAGGAUUGAGCAUCA
B10: chr12:123761472:123761573:+|3pUTR|ENSG00000185344|unk|total|mutant (ssRNA)
RNA: GGGAGUUCUACAGUCCGACGAUCAAUAAGGCAGUUUGAACGAACAGUCUUCCCACAGUCAGGCCAUUUUUGCUGAUUUGGUUCCGAAUUUUCAGAAAUACUCCGUACACUCCACCUGUUCUUUGAUGGGAAUAUCUAAGAAGGCAACAGAGGAUUGAGCAUCA
B11: chr1:17067390:17067767:-|3pUTR|ENSG00000117115|msi1|FALSE|unique (ssRNA)
RNA: GGGAGUUCUACAGUCCGACGAUCCCCAACAUGCAAAGCCCACAUUUAAAGGCCAGCCUCUGCCCCUUCAGUGAUGCGCUCUUUAGAAAUGCCAGUCCACUAUAUUCAGAAAUCCGCAGGGCACAAAACUUCCAGCAAGUCACUCAACAGAGGAUUGAGCAUCA
B12: chr6:105100707:105100870:-|3pUTR|ENSG00000112276|msi1|total|mutant (ssRNA)
RNA: GGGAGUUCUACAGUCCGACGAUCUGAGAUAUAUAUUUUCACAGUCUUUUCCCGAUAUAUUAUUGUUUUAACUUAACAAAUCUCCGCAAUCUCUCAAUGCCUUUUCACUUAUUUUUUUCCAAGUUAUGAUUCUUUUUCCUCACACAACAGAGGAUUGAGCAUCA
B13: chr1:119801171:119802827:-|three_prime_utr|ENSG00000134193|control|control|control (ssRNA)
RNA: GGGAGUUCUACAGUCCGACGAUCAAUUCACAGAAAGGAUAAUGGAGUUUCUGUACAAGAUUUACCAGAAAGAGAGUGGUGUGUAGACAUGCCUGGAGCAGACACCUUGGAGCCGCUGACAGAAGGUGAAGCAGUCCAAGAAAACAACAGAGGAUUGAGCAUCA
B14: ENSG00000107863:be:win_201|CDS|ENSG00000107863|bound_else_gene|NA|bound_elsewhere_windowed (ssRNA)
RNA: GGGAGUUCUACAGUCCGACGAUCUAUUGUUUAUCCCCCAGAGUCUGCAAUUCAAUUUUCAUAUAAGGAUGAAGAAAAUGGAAACAGAGGAGGAAAACAAAGAAACCGCUUGGAACCAAUGGAUACCAUAUUUGUUAAGCAAGUCAACAGAGGAUUGAGCAUCA
B15: chr4:112268257:112268372:+|CDS|ENSG00000138660|unk|total|mutant (ssRNA)
RNA: GGGAGUUCUACAGUCCGACGAUCAGUAAUCCUACAUCAGCCUCUGAUGAUUCCAAUGGGCUGGAGUGGGAAAAUGAUUUUGUCCGUGCCGAAAUGGAUGAUAAUGGAAAUUCCGAGUAUUCUGGAUUUGUAAAUCCUGUAUUACAACAGAGGAUUGAGCAUCA
B16: chr6:25850458:25850620:-|CDS|ENSG00000124564|control|control|control (ssRNA)
RNA: GGGAGUUCUACAGUCCGACGAUCCUCAGAUCUCUACCCAUUUGGUCCAUAUGUUUAGGCUGUUUCAGCCAUCAAUGGUUAGUUAGCACAAUGGUUGUAUACAUACCAACUUACAUCAGCUCUGUGUACCAUGUUAACAUCAGACAACAGAGGAUUGAGCAUCA
B17: chr1:202892395:202892497:-|3pUTR|ENSG00000117153|unk|total|mutant (ssRNA)
RNA: GGGAGUUCUACAGUCCGACGAUCGCGAGAAGUGACCAUUGUUGGAGCACCAUCCAGAGCCCGUGACCAGUCCAGUGGACAGUCCGUGGGAGAAUCAAAAAUCCUUUCCAGAAUGUCUGUUUCUCACUAUGUGCACCGGGUGAUCAACAGAGGAUUGAGCAUCA
B18: chr11:30010719:30012678:-|CDS|ENSG00000182255|control|control|control (ssRNA)
RNA: GGGAGUUCUACAGUCCGACGAUCUUUGCUCAAGAAAUUUCGGAGCUCUACUUCUUCUUCCCUGGGGGACAAGUCAGAGUAUCUAGAGAUGGAAGAAGGAGUUAAGGAAUCUCUGUGUGCAAAGGAGGAGAAGUGUCAGGGAAACAACAGAGGAUUGAGCAUCA
B19: chr1:109313209:109313310:-|3pUTR|ENSG00000134243|msi1|total|mutant (ssRNA)
RNA: GGGAGUUCUACAGUCCGACGAUCCAGGGCAAUAUUUUUAACUUGGGGCAGGAAGAAGGGAGCAGCAGAGAAUUGACCCGAUACCGCACCUAUUAAAAGAGAACUCUUGCUUCUUCUGAGAUUUUUCAAGCUGUGCUUUGUGUGCAACAGAGGAUUGAGCAUCA
B20: chr1:113685846:113685948:+|3pUTR|ENSG00000081026|unk|FALSE|unique (ssRNA)
RNA: GGGAGUUCUACAGUCCGACGAUCUAUAUACACUUGAGGUUCUGAUUAGAGAAAGAUCUGUAAAUUGCUCAUUAUUUUUUAUAUAGAUAUUUAAAAAAAACAGUUUAUGGCCUGCAUUUCUUUUACUGUCACAUUGGUUUAAUGCAACAGAGGAUUGAGCAUCA
B21: chr19:19663270:19663666:-|CDS|ENSG00000105726|control|control|control (ssRNA)
RNA: GGGAGUUCUACAGUCCGACGAUCCGGGCAGCCCAAGCCCGGGCCGCAGCCGCGCGCGCUCCUUGCCGCCGGGCCGGCGCUCAUAGCGAACGGUGACGAGCUGGUGGCUGCCGUGUGGCCGUACCGGCGGUUGGCGCUGUUGCGCAACAGAGGAUUGAGCAUCA
B22: chr20:7981316:7981417:-|3pUTR|ENSG00000125827|unk|FALSE|bound_elsewhere (ssRNA)
RNA: GGGAGUUCUACAGUCCGACGAUCUAAGUUUUCUAAGCAAUAUUUUUCAAGCCAGAAGUCCUCUAAGUCUUGCCAGUACAAGGUAGUCUUGUGAAGAAAAGUUGAAUACUGUUUUGUUUUCAUCUCAAGGGGUUCCCUGGGUCUCAACAGAGGAUUGAGCAUCA

The binders below were run against MSI1 full-length (mouse, UniProt Q61474 1-362) (assay: nsRBNS (natural sequence RNA bind-n-seq); RBNS binding buffer (assumed for nsRBNS): 25 mM Tris pH 7.5, 150 mM KCl, 3 mM MgCl2, 0.01% Triton X-100, 500 ug/ml BSA, 20 U/ml SUPERase-In, 4 C; UNK is unkempt and MSI1 is Musashi-1; names of the RNAs are library labels; protein concentration not given here; high values mean tight binding).
Sequence of UniProt Q61474 (Q61474 whole entry): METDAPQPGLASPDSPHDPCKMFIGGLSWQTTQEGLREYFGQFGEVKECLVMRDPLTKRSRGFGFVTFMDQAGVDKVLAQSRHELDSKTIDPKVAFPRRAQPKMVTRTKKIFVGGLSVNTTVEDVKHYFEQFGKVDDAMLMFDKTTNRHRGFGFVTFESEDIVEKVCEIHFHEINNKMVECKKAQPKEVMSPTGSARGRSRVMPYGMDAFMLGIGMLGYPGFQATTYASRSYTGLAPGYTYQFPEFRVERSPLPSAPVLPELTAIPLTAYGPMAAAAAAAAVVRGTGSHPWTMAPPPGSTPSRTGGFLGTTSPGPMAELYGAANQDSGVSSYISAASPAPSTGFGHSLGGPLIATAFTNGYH

Q: Which binding signal does the source give for B1 here?
A: The binding signal was 0.401 enrichment R.

Q: B2 was tested. Which binding signal did it give?
A: The binding signal was 0.283 enrichment R.

Q: For B3, which binding signal is on record?
A: Its binding signal is 0.263 enrichment R.

Q: How did the binding signal turn out when B4 was run?
A: Its binding signal is 0.832 enrichment R.

Q: B5 was tested. Which binding signal did it give?
A: Its binding signal is 0.593 enrichment R.

Q: For B6, which binding signal is on record?
A: Its binding signal is 0.256 enrichment R.

Q: Which binding signal does the source give for B7 here?
A: Its binding signal is 0.553 enrichment R.

Q: B8 was tested. Which binding signal did it give?
A: The binding signal was 0.875 enrichment R.

Q: B9 was tested. Which binding signal did it give?
A: Its binding signal is 0.458 enrichment R.

Q: How did the binding signal turn out when B10 was run?
A: The binding signal was 0.207 enrichment R.

Q: How did the binding signal turn out when B11 was run?
A: Its binding signal is 1.49 enrichment R.

Q: With B12 as the binder, how does the binding signal read?
A: Its binding signal is 2.22 enrichment R.

Q: Which binding signal does the source give for B13 here?
A: The binding signal was 0.53 enrichment R.

Q: For B14, which binding signal is on record?
A: The binding signal was 0.208 enrichment R.

Q: For B15, which binding signal is on record?
A: The binding signal was 0.258 enrichment R.

Q: With B16 as the binder, how does the binding signal read?
A: Its binding signal is 0.737 enrichment R.

Q: With B17 as the binder, how does the binding signal read?
A: Its binding signal is 0.267 enrichment R.

Q: B18 was tested. Which binding signal did it give?
A: The binding signal was 0.563 enrichment R.

Q: Which binding signal does the source give for B19 here?
A: Its binding signal is 0.648 enrichment R.

Q: Which binding signal does the source give for B20 here?
A: Its binding signal is 13.4 enrichment R.

Q: Which binding signal does the source give for B21 here?
A: The binding signal was 0.223 enrichment R.

Q: How did the binding signal turn out when B22 was run?
A: The binding signal was 0.499 enrichment R.
